# Source: publication PMC9911399, “Two distinct binding modes provide the RNA-binding protein RbFox with extraordinary sequence specificity”
# Substitutions are numbered along the chain they refer to; changes in the protein carry UniProt numbers. This is one part of the list.
# T1: RBFOX1 RRM (Homo sapiens, UniProt Q9NWB1 109-208)
# T1 sequence: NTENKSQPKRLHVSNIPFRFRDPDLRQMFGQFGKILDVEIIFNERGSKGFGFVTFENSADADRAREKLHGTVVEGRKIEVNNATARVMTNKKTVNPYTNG
# B1: UGUUCCG (DNA:RNA)
# RNA: GGGAGACCGGAAUUCAGAUUGUCCUGUUCCGUUAAAUCCCGUCGUAGCCACCA
# DNA 1: CAATCTGAATTCCGGTCTCCC
# DNA 2: TGGTGGCTACGACGGGATT
# B2: GGCUCUA (DNA:RNA)
# RNA: B1 RNA with U25G, U27C, C30U, G31A
# DNA 1: CAATCTGAATTCCGGTCTCCC
# DNA 2: TGGTGGCTACGACGGGATT
# B3: AUACUGC (DNA:RNA)
# RNA: GGGAGACCGGAAUUCAGAUUGUCCAUACUGCUUAAAUCCCGUCGUAGCCACCA
# DNA 1: CAATCTGAATTCCGGTCTCCC
# DNA 2: TGGTGGCTACGACGGGATT
# B4: UCGAGCA (DNA:RNA)
# RNA: B1 RNA with G26C, U27G, U28A, C29G, G31A
# DNA 1: CAATCTGAATTCCGGTCTCCC
# DNA 2: TGGTGGCTACGACGGGATT
# B5: AAAGAAA (DNA:RNA)
# RNA: B3 RNA with U26A, C28G, U29A, G30A, C31A
# DNA 1: CAATCTGAATTCCGGTCTCCC
# DNA 2: TGGTGGCTACGACGGGATT
# B6: GAUAUUU (DNA:RNA)
# RNA: B3 RNA with A25G, U26A, A27U, C28A, G30U, C31U
# DNA 1: CAATCTGAATTCCGGTCTCCC
# DNA 2: TGGTGGCTACGACGGGATT
# B7: GAGGGAU (DNA:RNA)
# RNA: GGGAGACCGGAAUUCAGAUUGUCCGAGGGAUUUAAAUCCCGUCGUAGCCACCA
# DNA 1: CAATCTGAATTCCGGTCTCCC
# DNA 2: TGGTGGCTACGACGGGATT
# B8: CUAACCU (DNA:RNA)
# RNA: B3 RNA with A25C, C28A, U29C, G30C, C31U
# DNA 1: CAATCTGAATTCCGGTCTCCC
# DNA 2: TGGTGGCTACGACGGGATT
# B9: GCCUAUA (DNA:RNA)
# RNA: B7 RNA with A26C, G27C, G28U, G29A, A30U, U31A
# DNA 1: CAATCTGAATTCCGGTCTCCC
# DNA 2: TGGTGGCTACGACGGGATT
# B10: CCCACGC (DNA:RNA)
# RNA: B3 RNA with A25C, U26C, A27C, C28A, U29C
# DNA 1: CAATCTGAATTCCGGTCTCCC
# DNA 2: TGGTGGCTACGACGGGATT
# B11: ACGACAC (DNA:RNA)
# RNA: B3 RNA with U26C, A27G, C28A, U29C, G30A
# DNA 1: CAATCTGAATTCCGGTCTCCC
# DNA 2: TGGTGGCTACGACGGGATT
# B12: GUGAACA (DNA:RNA)
# RNA: B7 RNA with A26U, G28A, G29A, A30C, U31A
# DNA 1: CAATCTGAATTCCGGTCTCCC
# DNA 2: TGGTGGCTACGACGGGATT
# B13: UUCUUCG (DNA:RNA)
# RNA: B1 RNA with G26U, U27C, C29U
# DNA 1: CAATCTGAATTCCGGTCTCCC
# DNA 2: TGGTGGCTACGACGGGATT
# B14: CCGGUGA (DNA:RNA)
# RNA: B3 RNA with A25C, U26C, A27G, C28G, C31A
# DNA 1: CAATCTGAATTCCGGTCTCCC
# DNA 2: TGGTGGCTACGACGGGATT
# B15: UGGUGGC (DNA:RNA)
# RNA: B1 RNA with U27G, C29G, C30G, G31C
# DNA 1: CAATCTGAATTCCGGTCTCCC
# DNA 2: TGGTGGCTACGACGGGATT
# B16: GGUUAUA (DNA:RNA)
# RNA: B1 RNA with U25G, C29A, C30U, G31A
# DNA 1: CAATCTGAATTCCGGTCTCCC
# DNA 2: TGGTGGCTACGACGGGATT
# B17: GCUACCA (DNA:RNA)
# RNA: B1 RNA with U25G, G26C, U28A, G31A
# DNA 1: CAATCTGAATTCCGGTCTCCC
# DNA 2: TGGTGGCTACGACGGGATT
# B18: GCGCGCA (DNA:RNA)
# RNA: B7 RNA with A26C, G28C, A30C, U31A
# DNA 1: CAATCTGAATTCCGGTCTCCC
# DNA 2: TGGTGGCTACGACGGGATT
# B19: GACUUGC (DNA:RNA)
# RNA: B3 RNA with A25G, U26A, A27C, C28U
# DNA 1: CAATCTGAATTCCGGTCTCCC
# DNA 2: TGGTGGCTACGACGGGATT
# B20: CUCGUCU (DNA:RNA)
# RNA: B3 RNA with A25C, A27C, C28G, G30C, C31U
# DNA 1: CAATCTGAATTCCGGTCTCCC
# DNA 2: TGGTGGCTACGACGGGATT
# B21: CAGAGUC (DNA:RNA)
# RNA: B7 RNA with G25C, G28A, A30U, U31C
# DNA 1: CAATCTGAATTCCGGTCTCCC
# DNA 2: TGGTGGCTACGACGGGATT
# B22: GGCCUCU (DNA:RNA)
# RNA: B3 RNA with A25G, U26G, A27C, G30C, C31U
# DNA 1: CAATCTGAATTCCGGTCTCCC
# DNA 2: TGGTGGCTACGACGGGATT
# B23: GAACCUA (DNA:RNA)
# RNA: B3 RNA with A25G, U26A, U29C, G30U, C31A
# DNA 1: CAATCTGAATTCCGGTCTCCC
# DNA 2: TGGTGGCTACGACGGGATT
# B24: UUCACUA (DNA:RNA)
# RNA: B1 RNA with G26U, U27C, U28A, C30U, G31A
# DNA 1: CAATCTGAATTCCGGTCTCCC
# DNA 2: TGGTGGCTACGACGGGATT
# B25: UUGUCAG (DNA:RNA)
# RNA: B1 RNA with G26U, U27G, C30A
# DNA 1: CAATCTGAATTCCGGTCTCCC
# DNA 2: TGGTGGCTACGACGGGATT
# B26: GGUGUAC (DNA:RNA)
# RNA: B7 RNA with A26G, G27U, G29U, U31C
# DNA 1: CAATCTGAATTCCGGTCTCCC
# DNA 2: TGGTGGCTACGACGGGATT
# B27: GAAUCCA (DNA:RNA)
# RNA: B1 RNA with U25G, G26A, U27A, G31A
# DNA 1: CAATCTGAATTCCGGTCTCCC
# DNA 2: TGGTGGCTACGACGGGATT
# B28: UCAUGGG (DNA:RNA)
# RNA: B1 RNA with G26C, U27A, C29G, C30G
# DNA 1: CAATCTGAATTCCGGTCTCCC
# DNA 2: TGGTGGCTACGACGGGATT
# B29: UCGGGGA (DNA:RNA)
# RNA: B7 RNA with G25U, A26C, A30G, U31A
# DNA 1: CAATCTGAATTCCGGTCTCCC
# DNA 2: TGGTGGCTACGACGGGATT
# B30: AAUACGG (DNA:RNA)
# RNA: B1 RNA with U25A, G26A, U28A, C30G
# DNA 1: CAATCTGAATTCCGGTCTCCC
# DNA 2: TGGTGGCTACGACGGGATT
# B31: UACCUAC (DNA:RNA)
# RNA: B3 RNA with A25U, U26A, A27C, G30A
# DNA 1: CAATCTGAATTCCGGTCTCCC
# DNA 2: TGGTGGCTACGACGGGATT
# Target: T1, RBFOX1 RRM
# Experiment: EMSA; HiTS-Eq, 1 nM pool, 10 min; buffer printed only for the single-RNA assays: 10 mM Tris pH 7.5, 150 mM NaCl, 3.4 mM EDTA, 0.001% NP-40, 30 C
# Settings: tags: His6 N-terminal (pET28a); label: 5' 32P
# Procedure, shortened: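 These values rest on relative association constants, computed from read-count changes of each RNA species versus the control reaction and normalised to the cognate motif. Reads came from free RNA recovered by 8% native PAGE after purified RbFox RRM (wild type or mutant) at increasing concentrations was equilibrated for 10 min in 50 µL with 1 nM of a 5′-radiolabelled pool with 7 randomized nucleotides and DNA-annealed flanks.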
row,Binder,binding signal
1,B1,0.0186 KA relative to UGCAUGU
2,B2,0.00407 KA relative to UGCAUGU
3,B3,0.007 KA relative to UGCAUGU
4,B4,0.0163 KA relative to UGCAUGU
5,B5,0.000936 KA relative to UGCAUGU
6,B6,0.00677 KA relative to UGCAUGU
7,B7,0.0272 KA relative to UGCAUGU
8,B8,0.00307 KA relative to UGCAUGU
9,B9,0.00531 KA relative to UGCAUGU
10,B10,0.00611 KA relative to UGCAUGU
11,B11,0.00283 KA relative to UGCAUGU
12,B12,0.00665 KA relative to UGCAUGU
13,B13,0.021 KA relative to UGCAUGU
14,B14,0.0216 KA relative to UGCAUGU
15,B15,0.0186 KA relative to UGCAUGU
16,B16,0.00389 KA relative to UGCAUGU

row,Binder,binding signal
1,B17,0.00726 KA relative to UGCAUGU
2,B18,0.0238 KA relative to UGCAUGU
3,B19,0.0149 KA relative to UGCAUGU
4,B20,0.0141 KA relative to UGCAUGU
5,B21,0.0108 KA relative to UGCAUGU
6,B22,0.0109 KA relative to UGCAUGU
7,B23,0.00306 KA relative to UGCAUGU
8,B24,0.00407 KA relative to UGCAUGU
9,B25,0.0244 KA relative to UGCAUGU
10,B26,0.00953 KA relative to UGCAUGU
11,B27,0.00426 KA relative to UGCAUGU
12,B28,0.00438 KA relative to UGCAUGU
13,B29,0.00884 KA relative to UGCAUGU
14,B30,0.00325 KA relative to UGCAUGU
15,B31,0.00304 KA relative to UGCAUGU
